# Results reported in article PMC12136788.
# The list shows a part of the results.
# B1: chr4:140556289:140556290:+_ENSMUSG00000036622_ENSMUST00000037055|mus_mus|mus_mus_mus_hu_False|48_88 (ssRNA)
# RNA: GGGAGUUCUACAGUCCGACGAUCGAUGGAGCUCACCAGGCCCCCUUUGGCUGUGCAGAACCCUGUGCGGGUCACCACUGCCAGGACACGGGGUCCCACAUAGGCCCGGGCCUGCAAGAUGAGGGUCCCGCAGAAGAGUGUGUGCAACAGAGGAUUGAGCAUCA
# B2: 127511639_127515221_873_CDS_ENSMUSG00000074238_ENSMUST00000051737|mouse|control|control (ssRNA)
# RNA: GGGAGUUCUACAGUCCGACGAUCGCGCUCCCUCAUGGGCAGCAUCCUGUUCAUUCCUUCUUCAUCUUCCCACUCUAGGUCUAAGGAGGUGCUGUCGUCAUUUCCACUCGUUGAUUUGGUUUUGGUCAUCAGGUCACAGCUGCUCAACAGAGGAUUGAGCAUCA
# B3: chr8:117878989:117878990:-_ENSG00000164754_ENST00000297338|hu_hu|hu_hu_hu_mus_True|48_108 (ssRNA)
# RNA: GGGAGUUCUACAGUCCGACGAUCCCAGAGGCCCUCUUUUACUGAGGACAAAAUGUGCGUAGAACAUUUUUCUUAUUUGCUAUGAAAACAGAAGAAACCUGGAUCUCGGCGGGGAGCCGGGAGGGGUGGGUGGCCCGGGGAGGGCAACAGAGGAUUGAGCAUCA
# B4: chr1:39494564:39494565:+_ENSG00000168653_ENST00000372967|hu_hu|hu_hu_hu_mus_True|68_68 (ssRNA)
# RNA: GGGAGUUCUACAGUCCGACGAUCAUGCAUUCGCCUCAUCGUUUUGUACCGAAGCAAGCACUCUUCGAAAUCAUCAUACUCUAUCUUGCACUCCUUUUUCGCCCGGGUCCCACCGAUCCCGUGUGCACACUCUAUCCACUCUUUCAACAGAGGAUUGAGCAUCA
# B5: 9960549_9963260_328_CDS_ENSMUSG00000024287_ENSMUST00000025137|mouse|control|control (ssRNA)
# RNA: GGGAGUUCUACAGUCCGACGAUCUGACUUCCAAGUAGCAACAUUUUUUUCAACAAAAGUGAAUAUUGUGUCACACUGAUCCAAAGGAAGGCAGUCUAAGACAUCUCCCAAUAGCACAAAUGGUGUGGACGCAGUACAAACACUCAACAGAGGAUUGAGCAUCA
# B6: chr2:47387792:47387793:-_ENSG00000143933_ENST00000272298|hu_hu|hu_hu_hu_mus_True|18_18 (ssRNA)
# RNA: GGGAGUUCUACAGUCCGACGAUCUAAGGACAAUGACAGUAAGAUAAGGGAAGAAAACAUGGAGGAAUGAAGUCCUAAUUACUAUACAUGCAUAUUUUUUGACAGUAGGGGGGGGGACUUUUACAGAGAUAAGUUACAAACAAACAACAGAGGAUUGAGCAUCA
# B7: chr2:26350769:26350770:+_ENSG00000084733_ENST00000264710|hu_mus|FALSE|FALSE (ssRNA)
# RNA: GGGAGUUCUACAGUCCGACGAUCGAUGUCUUCAGCUAAUGUGAGGAACGCCUUUUCGAUGUUUAUAUUUGCUUUUGCACUAGUCUCAAAAAACCUAAUACCAUGCUCCCUUGCAAUCUGUUCUCCUUUGCCUUUCGGUACAACCAACAGAGGAUUGAGCAUCA
# B8: chr7:54825262:54825263:-_ENSG00000132432_ENST00000352861|hu_hu|hu_hu_hu_mus_False|88_98 (ssRNA)
# RNA: GGGAGUUCUACAGUCCGACGAUCCUGCCGGCUGGGCACAAACUGCAUUACCUGAUCAUCCAUGUUUGUUGGAUGGCGGAUUGAGAGCGUAGAGACACGUAGCUCAGGAGAGAACCGAGCCCAACGGAACCGGAAGCUGGCAACCAACAGAGGAUUGAGCAUCA
# B9: 24910103_24910223_1147_CDS_ENSG00000107863_ENST00000396432|human|control|control (ssRNA)
# RNA: GGGAGUUCUACAGUCCGACGAUCAGGUUGUGUCAGUACUGGUGUACUGGUUUGCUGUUUGCUCAAUGAUGAGUCAGGAGGAGAUAUUUCAACUGGCUGUGCCAUGGCUGAUGGGGCAGAUGGCAGCCAGGGAUAGCAGAUUGGCAACAGAGGAUUGAGCAUCA
# B10: chr17:7144716:7144717:-_ENSG00000170296_ENST00000577035|hu_mus|FALSE|FALSE (ssRNA)
# RNA: GGGAGUUCUACAGUCCGACGAUCCUGGUACAGCUGACCCAUCGUGGCACUGGUGGGUGGAAUGACAUUGUUGACAAAGAAAAACAAGGCAUCUUCAGCACGGAGAUGAAUUCGCUUCCGGAUCAAGAAGUAGAAUUGACCAACCAACAGAGGAUUGAGCAUCA
# B11: chr6:41757443:41757444:+_ENSG00000214736_ENST00000398881|hu_mus|hu_hu_hu_mus_False|48_108 (ssRNA)
# RNA: GGGAGUUCUACAGUCCGACGAUCGAACUGUCUGCUGGCAACAUCUCAGCCGACACUGGGGGAUGGGGGGGCAGUGGGGGGGGGUUCAGGGAAGGGGAGGGAGUCAACUUCAGCUGCCACUCAGGUAGGAUCUUGUGGUCACAGCAACAGAGGAUUGAGCAUCA
# B12: chr2:121258011:121258012:+_ENSMUSG00000027248_ENSMUST00000028683|mus_hu|FALSE|FALSE (ssRNA)
# RNA: GGGAGUUCUACAGUCCGACGAUCCUUGCCCUGUAUCAAAUCUUUAUUGUCUUCUGUCAUGUGAGGGCAGAUACCAAAAAUGUUUUCCUGGAUAAACUUUUUAAUUUUGCCACUGGUCAUUUUUUGCUCUGUAUAUGCCACAGUCAACAGAGGAUUGAGCAUCA
# B13: chr2:25301763:25301764:+_ENSMUSG00000026944_ENSMUST00000102919|mus_hu|FALSE|FALSE (ssRNA)
# RNA: GGGAGUUCUACAGUCCGACGAUCGAGCUUCCGCUUGUUGCCGCCGCUGUAGGUGCCAGCCGGCUUGUCUGCGUACUUGGUCAGCUCCAGCUUCUCCAGAGCCCACUUCACCACCCGGGCCUCGUCCUUCCAGGAGAUCCCACGCAACAGAGGAUUGAGCAUCA
# B14: chr1:46159212:46159213:+_ENSG00000159596_ENST00000372025|hu_mus|hu_hu_hu_mus_True|48_98 (ssRNA)
# RNA: GGGAGUUCUACAGUCCGACGAUCUCUGAUCCCUCCCAAGAAAGAUAGGAAACCGGCUCCAUAAGCCAUCUGAGUGAAAGCUAGGACGGGAAUAUAAGACUUUGUUAUUACCAUGAGAAGUGGGGGAGCAGUAAAGGGGAUUAACAACAGAGGAUUGAGCAUCA
# B15: chr17:71578653:71578654:+_ENSMUSG00000024052_ENSMUST00000129635|mus_mus|FALSE|FALSE (ssRNA)
# RNA: GGGAGUUCUACAGUCCGACGAUCAGAUCCUCUUGCUGCCUGGGCUCUCUUCUCAUCAUCUGAGCUCACACCCACAUCACCUACAUCUUCUGCAACAGGGGAAGCUGCCUGCUCCUCCUUCCUAUUGUCCUGUUUGCACUUCUUCAACAGAGGAUUGAGCAUCA
# B16: chr3:95749504:95749505:+_ENSMUSG00000015749_ENSMUST00000165307|mus_mus|motif|central (ssRNA)
# RNA: GGGAGUUCUACAGUCCGACGAUCAGUGUAAUUGGUUAAUUUAUAAAUAACUUUAAAACACUAUGAAUGAAAUGCACCAAACGGCACCUGUGUAAAAGCAACAAUGUUUUAAUUAUGGGCUAAAAAUGUCUAAUACAUUAAGCACAACAGAGGAUUGAGCAUCA
# B17: chr5:124080617:124080618:-_ENSMUSG00000049550_ENSMUST00000063905|mus_hu|FALSE|FALSE (ssRNA)
# RNA: GGGAGUUCUACAGUCCGACGAUCUUCCAUCUCUUUAGCAUGGGCAGCCCGUUCAGAGUCUUGUUGAUUCUGCAAAUUUUCUAUUUCGUGUUGGUAAUCUAGUCUCAUUUUCUCUAUUUGUGUUUUUAGUUCAGCAAAUUCUGCCAACAGAGGAUUGAGCAUCA
# B18: 75715083_75722566_392_CDS_ENSG00000169375_ENST00000360439|human|control|control (ssRNA)
# RNA: GGGAGUUCUACAGUCCGACGAUCCGCUGUUGGGUGAUGAUGGCUGCUAUGAACUGCUGCUAUAGCGGGCCCAUGACUGCCGGAGCUCUGUGGCAUGGCUGAAACCUGGUAGCUGGGUGUUACAGAGUACUGAAUUCCCGUAGCCAACAGAGGAUUGAGCAUCA
# B19: chrX:123197699:123197700:+_ENSG00000101972_ENST00000371157|hu_hu|motif|central (ssRNA)
# RNA: GGGAGUUCUACAGUCCGACGAUCUGUGUGCUUCUCUACAAUAUUCCGGAUCUGUCGCAAUAAGGCAUCCAAAUGCUUUUCGGAUCGUCCAGUGGUAUAUAUUUCCAAAUCAAAGUACUGAGGCAACUGCAACAAGUUAGUCACCAACAGAGGAUUGAGCAUCA
# B20: chr3:10168198:10168199:+_ENSG00000254999_ENST00000256463|hu_mus|FALSE|FALSE (ssRNA)
# RNA: GGGAGUUCUACAGUCCGACGAUCCACCUCAAACACAUUGACAAGUAGUUCCGAACAAUGUUACUGAAAAGGGAAAAAGCCUAAUGCUGUUUCCAAGAGGUCCCCUGGACUGCUUGCUCCCCCAUGCCACGUCAUACCCCAGGGCAACAGAGGAUUGAGCAUCA
# B21: chrX:153993181:153993182:+_ENSG00000130826_ENST00000369550|hu_mus|FALSE|FALSE (ssRNA)
# RNA: GGGAGUUCUACAGUCCGACGAUCAACAUCAUCUUCUUGUAAUGGCUUCCGGUCUUUUUUCUUCUUAUGCUUCUUUGGGAAUGUAAUUACUUCUGCAUCCGCCAUCUUGAACUGCACCGCGUGCGUCCCGCCCAAGCCGCCACACAACAGAGGAUUGAGCAUCA
# B22: chr14:65675725:65675726:-_ENSMUSG00000021978_ENSMUST00000022550|mus_hu|FALSE|FALSE (ssRNA)
# RNA: GGGAGUUCUACAGUCCGACGAUCGAUGGGGGGCUUCCGAGUGAUGUGGGAGACAAGGAAGUUCAUGGCAAUGUCCUCACAGUUGAUGUAUUCAUCCACCAUGUCCCGGAUGGCCUGGGGCAUCACAUAAGAAUACAGGUAGGCCAACAGAGGAUUGAGCAUCA
# Biological target: T1, UNK ZnF1-3 (human, UniProt Q9C0B0 31-174)
# T1 sequence: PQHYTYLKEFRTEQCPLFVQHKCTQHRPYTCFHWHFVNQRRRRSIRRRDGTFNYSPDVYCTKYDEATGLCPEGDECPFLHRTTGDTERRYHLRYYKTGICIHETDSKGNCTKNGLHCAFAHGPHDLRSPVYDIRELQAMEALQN
# Assay: nsRBNS (natural sequence RNA bind-n-seq); RBNS binding buffer (assumed for nsRBNS): 25 mM Tris pH 7.5, 150 mM KCl, 3 mM MgCl2, 0.01% Triton X-100, 500 ug/ml BSA, 20 U/ml SUPERase-In, 4 C; UNK is unkempt and MSI1 is Musashi-1; names of the RNAs are library labels; protein concentration not given here; high values mean tight binding
row,Binder,binding signal
1,B1,1.78 enrichment R
2,B2,0.578 enrichment R
3,B3,1.78 enrichment R
4,B4,0.655 enrichment R
5,B5,1.52 enrichment R
6,B6,2.53 enrichment R
7,B7,0.453 enrichment R
8,B8,1.24 enrichment R
9,B9,0.877 enrichment R
10,B10,1.43 enrichment R
11,B11,1.41 enrichment R
12,B12,0.755 enrichment R
13,B13,0.731 enrichment R
14,B14,1.49 enrichment R
15,B15,0.85 enrichment R
16,B16,2.39 enrichment R
17,B17,0.456 enrichment R
18,B18,1.08 enrichment R
19,B19,1.32 enrichment R
20,B20,1.08 enrichment R
21,B21,1.35 enrichment R
22,B22,1.37 enrichment R
